Laboratory results published in PubChem BioAssay (NCI).
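Test compounds were applied to cells in 96-well plates for 48 hours at 5 doses. GI50 marks 50% less growth. TGI is the concentration that stops growth completely.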

These molecules were tested on NCI-H322M lung (assay: NCI-60 cell line screen, 48 h).

Row | SMILES | GI50 | TGI
1 | O=C(NNc1nc2cc(F)ccc2n2c(CN3CCCC3)ccc12)c1cnccn1 | 0.87 µM | 17.8 µM
2 | COc1ccc(CC(C)=C(c2ccc(OCCN3CCCC3)cc2)c2ccc(OCCN3CCCC3)cc2)cc1 | 3.59 µM | 6.77 µM
3 | N#Cc1cnc2ccc(-c3cnc(N)nc3)cc2c1N1CCc2cc(F)c(Cl)cc21 | 0.75 µM | 9.32 µM
4 | Nc1cc(-c2c[nH]c3ccc(F)cc23)nc2cc(-c3c[nH]c4ccc(F)cc34)nn12 | 2.09 µM | 5.08 µM
